The text below walks through data of US20230096897A1, “Lymphocyte Population and Methods for Producing Same” (AVM Biotechnology, LLC, priority 2020, published 2023).

This experiment concerns AVM-NKT cells. The note with it: mouse, in vivo.

On to methylprednisone, for which the “Induction of AVM-NKT cells in blood” value was “not induced”.
